# Experimental data taken from PubChem BioAssay AID1508623 (National Center for Advancing Translational Sciences (NCATS), 2021).
# The campaign covered roughly 48,000 compounds. About 450 (0.94%) were called active. Inconclusive results, whose numbers are uncertain, are shown with a selection of clear calls. The call rests on the fitted dose curve; in most records, active means well fitted inhibition curve with a large enough effect; inconclusive means small, poorly fitted or top-dose-only effect; inactive means no such curve, though single readings can be large or run the other way. Potencies of inconclusive entries are doubtful fits and often do not repeat.
# Experiment: Primary qHTS for Identification of Small Molecule Inhibitors of Huntingtin Promoter Activity; further: nearly all actives have a fitted effect of over 50% in size
# Settings: HEK293 HTT promoter firefly luciferase reporter (activity 0% = vehicle and -100% = no light), 24 h; series mostly up to 57.5 µM
# Outline: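 HEK293 luciferase promoter-reporter cells (2,500/well) plated 24 h, then compounds added at up to 57.5 uM final for 24 h at 37 °C. Firefly luminescence by Dual-Glo, normalized to vehicle (0%) and zero RLU (-100%).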
# Potency means the concentration at half of the fitted maximal effect; tags describe the fitted curve by direction and shape.
row,SMILES,Potency
1,CCOc1ccc(CCNC(=O)CCN2N=C(c3ccc(OC)cc3)CCC2=O)cc1OCC,"inconclusive: 12.6 µM [inhibitor, partial curve, poor fit]"
2,CCCSCCCNC(=O)c1cc2n(n1)CCCN(Cc1ccc(C)cc1)C2=O,"inconclusive: 35.5 µM [inhibitor, partial curve, poor fit]"
3,COc1ccc(Cn2ccc3nc(C)c(C(=O)NCc4ccc(C)cc4)cc3c2=O)cc1,"inconclusive: 4.47 µM [inhibitor, partial curve]"
4,Cc1cccc(OCCSc2nc3ccc(NC(=O)COc4ccccc4F)cc3s2)c1,"inconclusive: 39.8 µM [inhibitor, single point]"
5,O=C(NCCc1csc2nc(-c3cccc(F)c3)nn12)c1ccc(Br)o1,inactive
6,CCCCNc1nc2c(c(=O)n(Cc3ccc(Cl)c(Cl)c3)c(=O)n2C)n1C,"inconclusive: 31.6 µM [inhibitor, single point]"
7,CCOC(=O)c1scc(-c2ccccc2)c1S(=O)(=O)N1CCN(c2ccccc2OC)CC1,"inconclusive: 39.8 µM [inhibitor, single point]"
8,COc1ccc(NC(=O)c2oc3ccc(S(=O)(=O)N(C)C4CCCCC4)cc3c2C)cc1,"inconclusive: 28.2 µM [inhibitor, partial curve]"
9,O=C(/C=C/c1cn(CC(O)CN2CCCCCC2)c2ccccc12)c1ccc(Br)cc1 (configuration not stated),inactive
10,Cc1ccc(NC(=O)C(Cc2ccccc2)n2cccc2)cc1C (configuration not stated),"inconclusive: 39.8 µM [inhibitor, single point]"
11,COc1cccc(NS(=O)(=O)c2ccc3c(c2)CCCN3C(=O)C2CCC2)c1,"inconclusive: 20 µM [inhibitor, partial curve, poor fit]"
12,COc1ccc(C2c3[nH]c4ccc(OC)cc4c3CCN2C(=O)Nc2ccccc2)cc1 (configuration not stated),"inconclusive: 25.1 µM [inhibitor, partial curve, poor fit]"
13,CCN(CCN(C)C)C(=O)C1CCN(S(=O)(=O)c2c(C)noc2/C=C/c2ccccc2F)CC1,inactive
14,CC(=O)N1CCCc2cc(S(=O)(=O)N3CCN(c4cccc(C(F)(F)F)c4)CC3)ccc21,"inconclusive: 22.4 µM [inhibitor, partial curve, poor fit]"
15,Cc1ccc(NC(=O)C2CCC(CNS(=O)(=O)c3ccc4c(c3)CCCC(=O)N4)CC2)c(C)c1 (configuration not stated),"inconclusive: 22.4 µM [inhibitor, single point]"
16,Cc1ccc(S(=O)(=O)N(CC(=O)Nc2ccc3c(c2)OCO3)c2ccc(C)c(Cl)c2)cc1,"inconclusive: 22.4 µM [inhibitor, single point]"
17,Cn1cc(S(=O)(=O)N2CCCC2)cc1C(=O)Nc1ccc(C(F)(F)F)cc1,"inconclusive: 20 µM [inhibitor, partial curve, poor fit]"
18,COc1ccc(CNc2oc(COc3cccc(C)c3)nc2C#N)cc1,"inconclusive: 31.6 µM [inhibitor, partial curve, poor fit]"
19,CCc1nn(CC(=O)N2CCN(c3cccc(C(F)(F)F)c3)CC2)c(=O)c2cc3occc3n12,inactive

row,SMILES,Potency
1,COc1cccc(N2CCN(C(=O)Cn3cnc4onc(-c5ccc(F)cc5)c4c3=O)CC2)c1,"inconclusive: 15.8 µM [inhibitor, partial curve]"
2,COc1ccc(C)cc1NC(=O)C1CCCN(S(=O)(=O)c2ccc3c(c2)oc(=O)n3C)C1 (configuration not stated),"inconclusive: 28.2 µM [inhibitor, single point]"
3,Cc1ccc(SCc2nc(-c3ccc(C(=O)NCc4ccccc4Cl)cc3)oc2C)cc1,"inconclusive: 15.8 µM [inhibitor, partial curve, poor fit]"
4,COc1cccc(-c2nnc3n(CCc4ccccc4)c(=O)c4ccccc4n23)c1O,"inconclusive: 39.8 µM [inhibitor, single point]"
5,O=C(O)C1=CC(O)C(O)[C@H](O)C1 (some centres not stated),inactive
6,COc1ccc(S(=O)(=O)N(CCc2ccccc2)CC(=O)Nc2cc(C)ccc2C)cc1,"inconclusive: 35.5 µM [inhibitor, single point]"
7,CCc1ccc(NC(=O)C2CCN(S(=O)(=O)c3c(C)noc3/C=C/c3cccs3)CC2)cc1,"inconclusive: 20 µM [inhibitor, single point]"
8,COc1cc(Cl)c(C)cc1Nc1c2c(nc3ccccc13)CCC2,"inconclusive: 25.1 µM [inhibitor, partial curve, poor fit]"
9,Cc1nc2ccc(S(=O)(=O)N(CC(=O)Nc3ccc(Cl)cc3)Cc3ccccc3)cc2s1,"inconclusive: 28.2 µM [inhibitor, single point]"
10,CCOC(=O)c1cccc(NS(=O)(=O)c2c(C)nc3sc(C)cn3c2=O)c1,"inconclusive: 31.6 µM [inhibitor, single point]"
11,Cc1cc(Nc2ccc(C(C)C)cc2)nc(-n2nc(C)cc2C)n1,"inconclusive: 8.91 µM [inhibitor, partial curve]"
12,Cc1cccc2sc(N(Cc3cccnc3)C(=O)Cc3ccccc3)nc12,"inconclusive: 39.8 µM [inhibitor, single point]"
13,Cc1ccc(NC(=O)CSc2nc(-c3cccs3)cc(C(F)(F)F)n2)cc1C,"inconclusive: 14.1 µM [inhibitor, partial curve]"
14,COc1ccc(OC)c2sc(N(Cc3cccnc3)C(=O)c3ccc(C(C)=O)cc3)nc12,"inconclusive: 39.8 µM [inhibitor, single point]"
15,Cc1ccc(C(=O)COC(=O)c2cccc(NC(=O)c3ccc(Br)cc3)c2)cc1,"inconclusive: 22.4 µM [inhibitor, single point]"
16,COc1cccc(CNC(=O)Cn2c(SCC(=O)Nc3ccc(F)cc3)nc3ccccc32)c1,"inconclusive: 22.4 µM [inhibitor, partial curve, poor fit]"
17,Cc1ccc2c(c1)-c1c(c(C(=O)NCCc3ccccc3)nn1C)CS2,"inconclusive: 39.8 µM [inhibitor, partial curve, poor fit]"
18,CCCCN(CC)CCCNC(=O)C1CCN(c2nc3ccc(CC)cc3s2)CC1,inactive
